# This is one part of the list.
# Columns and labels:
# Experiment in all cases: glycan array binding signal (z-score within array); higher = stronger binding
# Conditions in all cases: glycan notation: IUPAC condensed, linker removed
# [1] = target: Gal(b1-4)GlcNAc(b1-3)Gal(b1-4)GlcNAc(b1-3)Gal(b1-4)GlcNAc(b1-3)Gal(b1-4)GlcNAc(b1-2)Man(a1-3)[Gal(b1-4)GlcNAc(b1-3)Gal(b1-4)GlcNAc(b1-3)Gal(b1-4)GlcNAc(b1-3)Gal(b1-4)GlcNAc(b1-2)Man(a1-6)]Man(b1-4)GlcNAc(b1-4)GlcNAc
# Method in brief: (§1)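 The binding signal is a Z-score computed within each array and averaged over linkers. Arrays of the same protein sequence at different concentrations or buffers were also averaged together. Data originate from 3228 arrays in the Consortium for Functional Glycomics database, kept only where the protein sequence was available.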
# [2] = target: Gal(b1-4)GlcNAc(b1-3)Gal(b1-4)GlcNAc(b1-3)Gal(b1-4)GlcNAc(b1-3)Gal(b1-4)GlcNAc(b1-2)Man(a1-3)[Gal(b1-4)GlcNAc(b1-3)Gal(b1-4)GlcNAc(b1-3)Gal(b1-4)GlcNAc(b1-3)Gal(b1-4)GlcNAc(b1-2)Man(a1-6)]Man(b1-4)GlcNAc(b1-4)[Fuc(a1-6)]GlcNAc
# Method in brief: as §1
# [3] = target: Gal(b1-4)GlcNAc(b1-3)Gal(b1-4)GlcNAc(b1-3)Gal(b1-4)GlcNAc(b1-3)Gal(b1-4)GlcNAc(b1-2)[Gal(b1-4)GlcNAc(b1-3)Gal(b1-4)GlcNAc(b1-3)Gal(b1-4)GlcNAc(b1-3)Gal(b1-4)GlcNAc(b1-6)]Man(a1-6)[Gal(b1-4)GlcNAc(b1-3)Gal(b1-4)GlcNAc(b1-3)Gal(b1-4)GlcNAc(b1-3)Gal(b1-4)GlcNAc(b1-2)Man(a1-3)]Man(b1-4)GlcNAc(b1-4)[Fuc(a1-6)]GlcNAc
# Method in brief: as §1
# [4] = target: Gal(b1-4)GlcNAc(b1-3)Gal(b1-4)GlcNAc(b1-3)Gal(b1-4)GlcNAc(b1-3)Gal(b1-4)GlcNAc(b1-3)Gal(b1-4)GlcNAc(b1-2)Man(a1-3)[Gal(b1-4)GlcNAc(b1-3)Gal(b1-4)GlcNAc(b1-3)Gal(b1-4)GlcNAc(b1-3)Gal(b1-4)GlcNAc(b1-3)Gal(b1-4)GlcNAc(b1-2)Man(a1-6)]Man(b1-4)GlcNAc(b1-4)GlcNAc
# Method in brief: as §1
# [5] = target: Gal(b1-4)GlcNAc(b1-3)Gal(b1-4)GlcNAc(b1-3)Gal(b1-4)GlcNAc(b1-3)Gal(b1-4)GlcNAc(b1-3)Gal(b1-4)GlcNAc(b1-2)Man(a1-3)[Gal(b1-4)GlcNAc(b1-3)Gal(b1-4)GlcNAc(b1-3)Gal(b1-4)GlcNAc(b1-3)Gal(b1-4)GlcNAc(b1-3)Gal(b1-4)GlcNAc(b1-2)Man(a1-6)]Man(b1-4)GlcNAc(b1-4)[Fuc(a1-6)]GlcNAc
# Method in brief: as §1
# [6] = target: Gal(b1-4)GlcNAc(b1-3)Gal(b1-4)GlcNAc(b1-3)Gal(b1-4)GlcNAc(b1-3)Gal(b1-4)GlcNAc(b1-3)Gal(b1-4)GlcNAc(b1-2)[Gal(b1-4)GlcNAc(b1-3)Gal(b1-4)GlcNAc(b1-3)Gal(b1-4)GlcNAc(b1-3)Gal(b1-4)GlcNAc(b1-3)Gal(b1-4)GlcNAc(b1-6)]Man(a1-6)[Gal(b1-4)GlcNAc(b1-3)Gal(b1-4)GlcNAc(b1-3)Gal(b1-4)GlcNAc(b1-3)Gal(b1-4)GlcNAc(b1-3)Gal(b1-4)GlcNAc(b1-2)Man(a1-3)]Man(b1-4)GlcNAc(b1-4)[Fuc(a1-6)]GlcNAc
# Method in brief: as §1
# [7] = target: Gal(b1-4)GlcNAc(b1-3)Gal(b1-4)GlcNAc(b1-3)Gal(b1-4)GlcNAc(b1-3)Gal(b1-4)GlcNAc(b1-3)Gal(b1-4)GlcNAc(b1-3)Gal(b1-4)GlcNAc(b1-2)Man(a1-3)[Gal(b1-4)GlcNAc(b1-3)Gal(b1-4)GlcNAc(b1-3)Gal(b1-4)GlcNAc(b1-3)Gal(b1-4)GlcNAc(b1-3)Gal(b1-4)GlcNAc(b1-3)Gal(b1-4)GlcNAc(b1-2)Man(a1-6)]Man(b1-4)GlcNAc(b1-4)GlcNAc
# Method in brief: as §1
# [8] = target: Gal(b1-4)GlcNAc(b1-3)Gal(b1-4)GlcNAc(b1-3)GalNAc
# Method in brief: as §1
# [9] = target: Gal(b1-4)GlcNAc(b1-3)Gal(b1-4)GlcNAc(b1-3)[Gal(b1-4)GlcNAc(b1-3)Gal(b1-4)GlcNAc(b1-6)]GalNAc
# Method in brief: as §1
# [10] = target: Gal(b1-4)GlcNAc(b1-3)Gal(b1-4)GlcNAc(b1-6)[Gal(b1-3)]GalNAc
# Method in brief: as §1
# [11] = target: Gal(b1-4)GlcNAc(b1-3)Gal(b1-4)[Fuc(a1-3)]GlcNAc(b1-3)Gal(b1-4)[Fuc(a1-3)]GlcNAc
# Method in brief: as §1
# [12] = target: Gal(b1-4)GlcNAc(b1-3)GalNAc
# Method in brief: as §1
# [13] = target: Gal(b1-4)GlcNAc(b1-3)[Fuc(a1-3)GlcNAc(b1-6)]Gal(b1-4)Glc
# Method in brief: as §1
# [14] = target: Gal(b1-4)GlcNAc(b1-3)[Gal(b1-4)GlcNAc(b1-6)]Gal(b1-4)GlcNAc
# Method in brief: as §1
# [15] = target: Gal(b1-4)GlcNAc(b1-3)[Gal(b1-4)GlcNAc(b1-6)]GalNAc
# Method in brief: as §1
# [16] = target: Gal(b1-4)GlcNAc(b1-3)[GlcNAc(b1-6)]Gal(b1-4)GlcNAc
# Method in brief: as §1
# [17] = target: Gal(b1-4)GlcNAc(b1-6)Gal(b1-4)GlcNAc
# Method in brief: as §1
# [18] = target: Gal(b1-4)GlcNAc(b1-6)Gal(b1-4)GlcNAc(b1-6)GalNAc
# Method in brief: as §1
# [19] = target: Gal(b1-4)GlcNAc(b1-6)GalNAc
# Method in brief: as §1
# [20] = target: Gal(b1-4)GlcNAc(b1-6)[Gal(b1-3)]GalNAc
# Method in brief: as §1
# [21] = target: Gal(b1-4)GlcNAc(b1-6)[Gal(b1-3)]GlcNAc
# Method in brief: as §1
# [22] = target: Gal(b1-4)GlcNAc(b1-6)[Gal(b1-4)GlcNAc(b1-3)]GalNAc
# Method in brief: as §1
# Gal(b1-4)GlcNAc6P = target: Gal(b1-4)GlcNAc6P
# Method in brief: as §1
# Gal(b1-6)Gal = target: Gal(b1-6)Gal
# Method in brief: as §1
# Gal3S(b1-3)GalNAc = target: Gal3S(b1-3)GalNAc
# Method in brief: as §1
# Gal3S(b1-3)GlcNAc = target: Gal3S(b1-3)GlcNAc
# Method in brief: as §1
# [23] = target: Gal3S(b1-3)[Fuc(a1-4)]GlcNAc
# Method in brief: as §1
# Gal3S(b1-4)Glc = target: Gal3S(b1-4)Glc
# Method in brief: as §1
# Gal3S(b1-4)Glc6S = target: Gal3S(b1-4)Glc6S
# Method in brief: as §1
# Gal3S(b1-4)GlcNAc = target: Gal3S(b1-4)GlcNAc
# Method in brief: as §1
# Gal3S(b1-4)GlcNAc6S = target: Gal3S(b1-4)GlcNAc6S
# Method in brief: as §1
# [24] = target: Gal3S(b1-4)[Fuc(a1-3)]Glc
# Method in brief: as §1
# [25] = target: Gal3S(b1-4)[Fuc(a1-3)]Glc6S
# Method in brief: as §1
# [26] = target: Gal3S(b1-4)[Fuc(a1-3)]GlcNAc
# Method in brief: as §1
# [27] = target: Gal3S(b1-4)[Fuc(a1-3)]GlcNAc6S
# Method in brief: as §1
# Gal3S4S(b1-4)GlcNAc = target: Gal3S4S(b1-4)GlcNAc
# Method in brief: as §1
# Gal3S6S(b1-4)GlcNAc = target: Gal3S6S(b1-4)GlcNAc
# Method in brief: as §1
# Gal3S6S(b1-4)GlcNAc6S = target: Gal3S6S(b1-4)GlcNAc6S
# Method in brief: as §1
# Gal4S(b1-4)GlcNAc = target: Gal4S(b1-4)GlcNAc
# Method in brief: as §1
# Gal4S6S(b1-4)GlcNAc = target: Gal4S6S(b1-4)GlcNAc
# Method in brief: as §1
# Gal6P(b1-4)GlcNAc = target: Gal6P(b1-4)GlcNAc
# Method in brief: as §1
# Gal6S(b1-3)GlcNAc = target: Gal6S(b1-3)GlcNAc
# Method in brief: as §1
# Gal6S(b1-3)GlcNAc6S = target: Gal6S(b1-3)GlcNAc6S
# Method in brief: as §1
# Gal6S(b1-4)Glc = target: Gal6S(b1-4)Glc
# Method in brief: as §1
# Gal6S(b1-4)Glc6S = target: Gal6S(b1-4)Glc6S
# Method in brief: as §1
binder,measurement,setting,value
EEA (Euonymus europaeus) (protein) MASTIIATGPTYRVYCRAAPNYNMIVGKGVAFLAPIDETNELQYWYKDDTYSYIKDEAGLPAFSLVNKATGLTLKHSNHHPVPVKLVTYNPNVVDESVLWSQADDRGDGYSAIRSLTNPASHLEAAPLNDWSYNGAIIMGGVWIDAYNQQWKIEPHTG,glycan array binding signal (z-score),[1],-0.112
same,glycan array binding signal (z-score),[2],0.066
same,glycan array binding signal (z-score),[3],-0.077
same,glycan array binding signal (z-score),[4],-0.222
same,glycan array binding signal (z-score),[5],-0.141
same,glycan array binding signal (z-score),[6],0.147
same,glycan array binding signal (z-score),[7],-0.159
same,glycan array binding signal (z-score),[8],0.371
same,glycan array binding signal (z-score),[9],0.307
same,glycan array binding signal (z-score),[10],0.556
same,glycan array binding signal (z-score),[11],-0.222
same,glycan array binding signal (z-score),[12],-0.146
same,glycan array binding signal (z-score),[13],-0.11
same,glycan array binding signal (z-score),[14],-0.261
same,glycan array binding signal (z-score),[15],-0.249
same,glycan array binding signal (z-score),[16],-0.062
same,glycan array binding signal (z-score),[17],-0.238
same,glycan array binding signal (z-score),[18],-0.293
same,glycan array binding signal (z-score),[19],-0.101
same,glycan array binding signal (z-score),[20],-0.132
same,glycan array binding signal (z-score),[21],-0.155
same,glycan array binding signal (z-score),[22],-0.186
same,glycan array binding signal (z-score),Gal(b1-4)GlcNAc6P,-0.096
same,glycan array binding signal (z-score),Gal(b1-6)Gal,-0.197
same,glycan array binding signal (z-score),Gal3S(b1-3)GalNAc,-0.139
same,glycan array binding signal (z-score),Gal3S(b1-3)GlcNAc,-0.205
same,glycan array binding signal (z-score),[23],-0.156
same,glycan array binding signal (z-score),Gal3S(b1-4)Glc,-0.159
same,glycan array binding signal (z-score),Gal3S(b1-4)Glc6S,-0.062
same,glycan array binding signal (z-score),Gal3S(b1-4)GlcNAc,-0.217
same,glycan array binding signal (z-score),Gal3S(b1-4)GlcNAc6S,-0.14
same,glycan array binding signal (z-score),[24],-0.241
same,glycan array binding signal (z-score),[25],0.197
same,glycan array binding signal (z-score),[26],-0.158
same,glycan array binding signal (z-score),[27],-0.178
same,glycan array binding signal (z-score),Gal3S4S(b1-4)GlcNAc,-0.17
same,glycan array binding signal (z-score),Gal3S6S(b1-4)GlcNAc,-0.193
same,glycan array binding signal (z-score),Gal3S6S(b1-4)GlcNAc6S,-0.172
same,glycan array binding signal (z-score),Gal4S(b1-4)GlcNAc,-0.19
same,glycan array binding signal (z-score),Gal4S6S(b1-4)GlcNAc,-0.144
same,glycan array binding signal (z-score),Gal6P(b1-4)GlcNAc,-0.236
same,glycan array binding signal (z-score),Gal6S(b1-3)GlcNAc,-0.215
same,glycan array binding signal (z-score),Gal6S(b1-3)GlcNAc6S,-0.159
same,glycan array binding signal (z-score),Gal6S(b1-4)Glc,-0.188
same,glycan array binding signal (z-score),Gal6S(b1-4)Glc6S,-0.172

# Reference: the supplement of paper PMC8728848
